Laboratory results published in the supplement of paper PMC3334620.
The full ranking holds about 33,000 sequences; the median of “E-score (-0.5 to 0.5)” is about -0.04, and the highest 2% start at about 0.36. The list shows a part of the results.

molecular target: T1, Hmlalpha2 (UniProt P0CY09); test: PBM E-score (8-mer binding enrichment) (E-score (-0.5 to 0.5)); higher = stronger / more preferred TF binding; most listed sequences are background and not binding sites; conditions: protein concentration: 200 nM; construct: GST-full length
T1 sequence: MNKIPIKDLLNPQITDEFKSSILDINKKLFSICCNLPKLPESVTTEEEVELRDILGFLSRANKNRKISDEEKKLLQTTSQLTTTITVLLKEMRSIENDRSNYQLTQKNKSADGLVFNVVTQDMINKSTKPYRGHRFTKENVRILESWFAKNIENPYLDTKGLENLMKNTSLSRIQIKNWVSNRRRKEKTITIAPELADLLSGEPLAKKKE
Summary of the method: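 GST-tagged yeast TFs (full-length or DNA-binding domain) were made by PURExpress in vitro transcription/translation and applied at about 100-200 nM to universal all-10-mer Agilent arrays. The arrays were made double-stranded by primer extension, on fresh or once-stripped slides. Bound protein was detected with fluorescent anti-GST, and scans were normalised with masliner. Each ungapped eight-base word, pooled with its reverse complement, received an E-score (modified Wilcoxon-Mann-Whitney statistic) from the Universal PBM Analysis Suite.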

Sequence	PBM E-score
AACGTATG	0.215
AGGAGTTA	-0.0534
TACGGGAA	-0.224
CGGGAGAA	-0.177
CAAGAGGG	-0.15
ATGGATGA	-0.117
AGGGCTAT	-0.121
ACCTAGTC	-0.177
CCTCATGA	-0.085
TCACATCA	0.00787
GACCACCC	-0.32
ATCCGTTG	-0.024
TACACGAA	0.456
CCTATCCA	-0.143
ACCTTGAA	0.185
ATACGATA	0.143
GCCTGGCC	-0.304
CCGGAGCC	-0.185
GACTATGC	-0.0295
AAGCCTTG	-0.0991
ACGTAAGT	0.216
AAATTACG	0.309
ACGAACTG	-0.0912
AGGGATGC	-0.363
ACTATGAC	-0.069

Sequence	PBM E-score
ATTTGTCG	0.0833
GGGACCAA	-0.237
GCTCAGCC	-0.167
AAGGATTC	-0.0197
CAAACTAA	0.163
AGTAGTAG	0.0127
CCTTACAA	0.173
AATATACT	0.0111
ACTTGCCC	0.0516
CTCCGCCA	-0.207
GAGGGGCC	-0.278
CGATCCCG	-0.265
TATGGTGA	-0.0973
AGCGTGGC	-0.0937
CTGTCGGC	-0.259
GATTTGAC	0.0978
CCAGCTGC	-0.33
AATCTATG	0.107
ATAAGCTC	-0.121
ACACGCTG	0.355
CGAAACCC	-0.121
CATAGTTA	0.187
ACTTCGCT	-0.048
ATAGCCCA	0.02
CCCTGACA	-0.0343

Sequence	PBM E-score
CCCCGCGA	-0.24
CGGAGGTC	-0.166
CAATTTGA	0.126
TACAACGA	0.2
GAGGACAA	-0.166
CAAGTGTA	0.0757
GCGCGCAA	-0.00701
ACAAGGAA	0.165
CTACTATA	0.00693
AAGTTGGT	0.122
ACAATCCC	-0.0503
AGTACTCA	-0.00626
GTACCGGA	-0.0374
CGCCGTCC	-0.0603
CCGGGATA	-0.154
GGGGGTTA	-0.36
CTATGTGC	0.061
AGTCGTGA	-0.177
CGGGCGAC	-0.227
AGCATGCG	0.12
CCGGTCTC	-0.202
ACTAGAGA	-0.122
CTTGGACC	-0.137
GGGGTTAC	-0.121
AGCAGAAC	0.0637

Sequence	PBM E-score
CGGGAATA	-0.0282
GGCGACCC	-0.377
GACCATAC	-0.14
CGTATTGC	0.127
ACGTTGGC	0.104
AAACGCAG	0.192
AGCACTTG	-0.22
GACTGGTA	-0.0244
AAGTTCAG	0.0354
CGCTGACC	-0.123
AGTTAAGA	0.228
ACCTTCCC	-0.261
CTAGCACC	-0.157
GAGGTCGA	-0.0826
GTGGATAA	-0.0775
AAACAACG	0.17
AGGCCTTG	-0.0676
CGGTAGAG	-0.337
CGGCCCGC	-0.265
AGGCTGGC	-0.252
AGAAGCCT	0.0561
AAAATATC	0.0612
AGAATAAC	0.256
CGGTACAA	-0.00388
AGTCCATG	-0.0455

Sequence	PBM E-score
GCTGATCC	-0.297
ACCTGAAC	-0.0757
GCCGTCGA	-0.131
TCACCCAA	-0.109
CAACCACC	-0.218
ATTGCCGC	-0.0809
ATGGAGGG	-0.152
GGCTCCCA	-0.244
AAGATGGG	-0.247
CGTTCTAA	0.0634
GCAGCTAC	-0.0513
AAGATTTA	0.224
TATATCAA	0.136
CCCATGCG	-0.0486
AGGTCAGC	-0.0347
CGCCTAAA	-0.05
CACGCAGC	0.119
ATAGATCG	-0.0602
AATACTTG	0.23
AGTACGTC	-0.043
CAAGTTAG	0.0437
CTCTAAAA	-0.0362
GAGTTTCA	0.0942
GCGTGTAC	0.427
CCGTTGTA	0.221

Sequence	PBM E-score
CCACGCGC	-0.248
GATTTCGC	0.11
AGTGACCC	-0.278
ATTGATCA	-0.0281
AATATCGC	-0.112
CCCAAACA	0.129
CGCGATTA	0.0896
CTTTTTCC	-0.153
CCGCCACA	-0.153
AGATATAT	0.0914
CGCCAACC	-0.259
GCATCTCC	-0.324
GGTAGAAA	-0.104
AGCGAAAC	0.145
ACACTCTC	0.188
AGGGTATC	-0.16
AACACGTC	0.377
AACAACCT	0.18
ACCCCGTG	-0.0508
CCGCTGGA	-0.149
CGTAATAC	0.378
ATTATTCG	0.117
GTAAGGAA	0.11
CGAGCGAG	0.151
GTAGCATA	0.00571

Sequence	PBM E-score
TTAAAAAA	0.257
CACACTAC	0.19
AATTTAAC	0.344
CATGTGCC	0.0973
CCGTATCC	-0.243
GTCCCGTA	-0.107
ATCCACGG	-0.0132
CCCATGGC	-0.369
GTCAAACA	0.19
GCGTAACA	0.29
AATTTGCA	-0.0461
CTCATGAA	-0.0457
AGTTTGTG	-0.0364
ATAAACAA	0.323
AGGGATAT	-0.177
CTCCTTCA	-0.245
CAGGGGCA	-0.12
AAGGATTA	0.0726
GTACATTA	0.316
AGGTTGAC	-0.105
ATCAGACA	0.0303
AACTTGCG	0.118
CTAGTTAC	0.0707
AGCAACCG	-0.162
CATCAGGG	-0.183

Sequence	PBM E-score
ACCCTCCA	-0.325
GGTGATTA	0.0193
AACGGGCT	-0.202
CCGATCCA	-0.134
AATCGGCC	-0.278
GGCAATGA	-0.0543
CAGGTGAG	-0.27
GAGTCGCA	-0.267
AAAGTTTC	-0.0888
CAAGTACA	0.266
CACGCTGG	-0.123
GGCCCCAC	-0.367
CTGACTTC	-0.204
AAACCTGT	0.0739
CAGACGGA	-0.107
ACATATTC	0.3
ACTAGCAT	0.0651
CGCATACC	0.04
AGGCGTAA	0.105
AAGGCATG	0.0701
CCAACGTC	-0.149
CCTTCTCC	-0.294
CTCAATTA	0.165
AACGAAGC	-0.105
CGACACGA	0.334

Sequence	PBM E-score
ACCTGCAT	-0.139
CTAATAAG	0.0542
GGTCCGCA	-0.153
AGGCAGTC	-0.2
ATCCTCAT	-0.149
TCAGGCCA	-0.115
AGTGTTAG	0.0767
AGTCATTG	-0.213
CCACGGCA	-0.183
TAAGGCAA	-0.131
ATACCTTA	-0.0999
AGATACCA	-0.0373
ACTCTCAT	-0.0381
AGCGGAAA	-0.113
GGCTGTCA	-0.121
ACAGGGAG	-0.126
AGTGCAGG	-0.159
CCGAACTC	-0.114
AGCCGTTG	-0.0377
